# Assay results taken from PubChem BioAssay AID1030 (National Center for Advancing Translational Sciences (NCATS), 2008).
# Hit rate of the full screen: of about 220,000 compounds, about 16,000 (7.3%) were called active. Inconclusive means that the source gave no clear call. Such entries were picked first, then a sample of the others. The call rests on the fitted dose curve; in most records, active means well fitted inhibition curve with a large enough effect (not every such curve was filed as active); inconclusive means small, poorly fitted or top-dose-only effect, or another doubt; inactive means no such curve, though single readings can be large or run the other way. No potency is given beside an inconclusive call; the fits are too rough.
# Target: Aldehyde dehydrogenase 1A1 (Homo sapiens) (UniProt P00352)
# Assay: qHTS Assay for Inhibitors of Aldehyde Dehydrogenase 1 (ALDH1A1)
# Conditions: Purified ALDH1A1, NADH fluorescence, propionaldehyde substrate; series mostly up to 75.3 µM
# Potency means the concentration at half of the fitted maximal effect; tags describe the fitted curve by direction and shape.
# Chain of UniProt P00352 (P00352 whole entry, looked up): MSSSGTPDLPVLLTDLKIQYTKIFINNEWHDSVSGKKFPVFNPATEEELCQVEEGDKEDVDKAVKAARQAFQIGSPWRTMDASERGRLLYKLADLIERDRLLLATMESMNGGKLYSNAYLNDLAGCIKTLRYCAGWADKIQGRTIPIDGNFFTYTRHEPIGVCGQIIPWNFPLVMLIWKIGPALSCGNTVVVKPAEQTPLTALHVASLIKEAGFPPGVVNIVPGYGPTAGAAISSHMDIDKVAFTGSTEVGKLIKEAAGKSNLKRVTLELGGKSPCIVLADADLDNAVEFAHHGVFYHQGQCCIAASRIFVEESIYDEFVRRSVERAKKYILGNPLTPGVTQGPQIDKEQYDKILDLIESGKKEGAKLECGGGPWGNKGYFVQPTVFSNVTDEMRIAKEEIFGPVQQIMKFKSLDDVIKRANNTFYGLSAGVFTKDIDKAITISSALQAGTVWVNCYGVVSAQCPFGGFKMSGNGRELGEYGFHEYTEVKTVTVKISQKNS
row,SMILES,Potency
1,CCCCCCCCC(=O)N/N=C(\C)c1cccnc1,"inconclusive [inhibitor, single point]"
2,Cc1ccc(-c2nnn(CC(=O)Nc3ccccc3-c3ccccc3)n2)c(-n2cnnn2)c1,active: 25.1 µM
3,CCCOc1ccc(-c2nnc(N)s2)cc1,inactive
4,O=S(=O)(c1ccccc1)N1CCC2(CCN(c3ccncc3)CC2)CC1,inactive
5,CCOc1ccc(-c2nc3n(c(=O)c2C#N)CCS3)cc1,"inconclusive [inhibitor, partial curve]"
6,NC(=O)SCC(=O)Nc1cccc(Cl)c1,active: 0.597 µM
7,CCNC(=O)Cn1c(=O)c(=O)n(Cc2ccccc2)c2ccc(Cl)cc21,"inconclusive [inhibitor, single point]"
8,CCC(C(=O)Nc1cc(C(=O)Nc2cc(C)ccn2)ccc1Cl)c1ccccc1 (configuration not stated),"inconclusive [inhibitor, single point]"
9,CSc1nc(N2CCOCC2)c2c3c(sc2n1)CCCC3,"inconclusive [inhibitor, single point]"
10,O=C(CN1CCN(c2ccccc2O)CC1)NC(=O)NCc1ccco1,"inconclusive [inhibitor, single point]"
11,CCOc1ccc(NS(=O)(=O)c2cc(NC(=O)c3ccc(C)cc3)ccc2Cl)cc1,"inconclusive [inhibitor, single point]"
12,COc1ccc(OCC(=O)Sc2ccc(C)cc2)cc1,"inconclusive [inhibitor, single point]"
13,CC1(C)C(=O)C2(CCCC2)C(=O)OC1c1ccco1 (configuration not stated),active: 22.4 µM
14,CC1Cc2ccccc2N1C(=O)c1ccc(N2CCCCC2)c([N+](=O)[O-])c1 (configuration not stated),active: 22.4 µM
15,CCOc1cc(N2CCOCC2)c(OCC)cc1NC(=O)CSc1n[nH]c(N)n1,"inconclusive [inhibitor, single point]"
16,Cc1ccc(OCC(=O)NCc2ccccc2)c([N+](=O)[O-])n1,inactive
17,COc1ccc(C(=O)Nc2cccc(C(C)=O)c2)cc1OC,"inconclusive [inhibitor, single point]"
18,O=C1C=C(c2ccccc2)OC(=O)C1C(=O)c1ccccc1 (configuration not stated),"inconclusive [inhibitor, single point]"
19,O=C(Cc1sc(Nc2ccccc2)nc1-c1ccccc1)NCc1ccccn1,"inconclusive [inhibitor, single point]"
20,Cc1ccc(S(=O)(=O)Oc2ccccc2/C=N/O)cc1,inactive
21,COc1ccccc1-c1nccc(NCc2cccs2)n1,"inconclusive [inhibitor, partial curve]"
22,CCOc1ccc(-c2csc(N)c2C(=O)OC)cc1,active: 22.4 µM
23,O=C1C(Cl)=C(N2CCOCC2)C(=O)N1c1cccc(Cl)c1,"inconclusive [inhibitor, single point]"
24,CCCCCN1C(C)=CC(=C(C#N)C#N)C=C1C,"inconclusive [inhibitor, single point]"

row,SMILES,Potency
1,CCOC(=O)CCc1c(C)n(CC)c2cc(-c3ccccc3OC)nn2c1=O,"inconclusive [inhibitor, single point]"
2,O=C(CCNS(=O)(=O)c1cccc2nsnc12)NCCC1=CCCCC1,"inconclusive [inhibitor, single point]"
3,O=c1c(CCc2ccccc2)nc2cnc(N3CCNCC3)nc2n1CCc1ccccc1,"inconclusive [inhibitor, partial curve]"
4,CCC(=NC(C)c1ccccc1)c1c(O)n(C)c(=O)n(C)c1=O (configuration not stated),inactive
5,O=C(N/C(=C\c1ccccc1)C(=O)N1CCN(CCO)CC1)c1ccccc1,inactive
6,COc1ccc(S(=O)(=O)Nc2ccc3c(c2)CCC3)cc1,"inconclusive [inhibitor, partial curve]"
7,O=c1c(-c2ccccc2)nc2cncnc2n1-c1ccccc1,"inconclusive [inhibitor, single point]"
8,COc1cccc(-c2ccc(C#N)c(OC(=O)c3ccc(Cl)cc3)n2)c1,"inconclusive [inhibitor, partial curve]"
9,CCc1ccccc1NC(=O)c1cccc(Oc2ccc([N+](=O)[O-])cc2Cl)c1,"inconclusive [inhibitor, partial curve]"
10,COc1ccc(CC(=O)NNC(=S)Nc2ccccc2)cc1Br,"inconclusive [inhibitor, single point]"
11,Cc1cccc(NC(=O)c2ccc([N+](=O)[O-])s2)c1C,active: 0.891 µM
12,O=C1CC(Nc2ccccc2)C(=O)N1c1ccc(N2CCOCC2)cc1 (configuration not stated),"inconclusive [inhibitor, single point]"
13,N/C(Cn1cncn1)=N\NC(=O)C(=O)Nc1cccc(C(F)(F)F)c1,inactive
14,CCSc1nnc([C@@H]2CCCN2C(=O)OC(C)(C)C)o1,"inconclusive [inhibitor, single point]"
15,O=C(c1ccc(NS(=O)(=O)c2cccs2)cc1)N1CCN(c2ccccc2Cl)CC1,"inconclusive [inhibitor, partial curve]"
16,CC(Sc1nc2nn(-c3ccccc3)c(=O)c-2c2n1CCCCC2)C(N)=O (configuration not stated),"inconclusive [inhibitor, single point]"
17,CCN1C(=O)c2cccc3c(S(=O)(=O)Nc4ccccn4)ccc1c23,active: 7.94 µM
18,Cc1ccc(-n2c(C)cc(C(=O)CSc3nnc4ccccn34)c2C)cc1,inactive
19,COCC(=O)Nc1cc(Cl)ccc1C,"inconclusive [inhibitor, single point]"
20,COc1cc(/C=C2/NC(=O)NC2=O)cc(Br)c1OCc1ccccc1,inactive
21,COc1ccc(-c2nc3c(c4c2C[C@H](c2ccccc2)OC4)CN(C(=O)c2ccco2)CC3)c(C)c1,active: 1.78 µM
22,COc1ccc(-c2nnc(NC(=O)C(C)C)s2)c(OC)c1,"inconclusive [inhibitor, partial curve]"
23,CN1CCN(CCC(=O)N/N=C/C=C2\N(C)c3ccccc3C2(C)C)CC1,inactive
